Hit rate of the full screen: of about 330,000 compounds, about 560 (0.17%) were called active. The inconclusive results got no clear call from the source; some entries with a clear call stand among them for comparison. Calls follow the shape of the dose curve; as a rule, active = well fitted inhibition curve with a large enough effect; inconclusive = small, poorly fitted or top-dose-only effect, or effect the other way; inactive = flat fitted curve, though single readings scatter. Potencies of inconclusive entries are left out as doubtful fits.
The molecules below were run against ATP-dependent 6-phosphofructokinase (Trypanosoma brucei brucei) (UniProt O15648) (assay: qHTS Assay to Find Inhibitors of T. brucei phosphofructokinase). Conditions: T. brucei PFK, ADP-Glo luminescence; series mostly up to 57.5 µM.
Chain of UniProt O15648 (O15648 whole entry, looked up): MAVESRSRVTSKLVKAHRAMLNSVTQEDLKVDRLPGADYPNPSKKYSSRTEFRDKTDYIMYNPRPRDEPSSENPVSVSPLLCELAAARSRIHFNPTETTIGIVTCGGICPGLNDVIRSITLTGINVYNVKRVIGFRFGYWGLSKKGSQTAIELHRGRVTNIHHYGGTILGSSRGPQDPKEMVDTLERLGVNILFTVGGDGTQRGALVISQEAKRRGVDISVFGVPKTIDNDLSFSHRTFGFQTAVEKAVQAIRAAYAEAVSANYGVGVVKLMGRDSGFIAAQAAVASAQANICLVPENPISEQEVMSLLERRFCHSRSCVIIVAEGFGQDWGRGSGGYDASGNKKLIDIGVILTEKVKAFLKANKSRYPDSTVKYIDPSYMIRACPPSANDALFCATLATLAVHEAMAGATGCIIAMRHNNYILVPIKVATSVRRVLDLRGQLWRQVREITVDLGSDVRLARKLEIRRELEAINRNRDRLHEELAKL
How it was run: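 In TEA buffer at pH 8.0 with 5 mM MgCl2, enzyme (1.25 nM) converted F6P (0.5 mM) and ATP (0.1 mM) for 45 min at room temperature. ADP product was read by luciferase luminescence.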
Also: nearly all actives have a fitted effect of over 60% in size.
Potency is read from the fitted curve at half-maximal effect; tags tell the direction and shape of the fitted curve.

| Structure (SMILES) | Potency |
| --- | --- |
| O=C(Cc1ccc(Br)cc1)N/N=C/c1cccnc1 | active: 16.9 µM |
| Cc1ccc(CN2C(=O)N/C(=C\c3cccn3-c3cccc(C(=O)O)c3)C2=O)cc1 | inconclusive [falling, partial curve] |
| CCC(CC)c1nnc(NC(=O)c2ccc3c(c2)OCO3)s1 | inconclusive [falling, single point] |
| CCOc1ccc(OCCN2C(=O)c3ccccc3C2=O)cc1 | inconclusive [falling, single point] |
| CCOC(=O)c1ccc(NC(=O)CN2CCN(Cc3ccccc3)CC2)cc1 | inactive |
| Cc1ccc(C(=O)OCC(=O)NC(=O)c2cccn2C)cc1[N+](=O)[O-] | inactive |
| Cc1ccc(C(=O)CSc2nc3ccccc3o2)cc1 | inactive |
| CCOC(=O)N1CCN(S(=O)(=O)c2ccc(C)cc2)C1c1ccccc1 (configuration not stated) | inactive |
| O=C1NC(=S)N/C1=C/c1ccc(-c2c(Br)cc([N+](=O)[O-])cc2Br)o1 | inconclusive [falling, partial curve] |
| Cc1nn(CC(=O)Nc2cccc(S(N)(=O)=O)c2)c(C)c1[N+](=O)[O-] | inconclusive [falling, single point] |
| Cc1cc(OCC(=O)Nc2ncn[nH]2)ccc1Cl | inconclusive [falling, single point] |
| CC(=O)Nc1ccc(S(=O)(=O)Oc2cccc(/C=N/N=C3/NC(=O)C(CC(=O)O)S3)c2)cc1 (configuration not stated) | inconclusive [activator, single point] |
| Cc1cc(F)ccc1NCc1ccc([N+](=O)[O-])cc1 | inconclusive [falling, partial curve] |
| COc1cc(/C=N/NC(=O)CC#N)cc(Br)c1O | inconclusive [falling, single point] |
| O=C(Cc1ccc(Cl)c(Cl)c1)NC1CCCCCC1 | inconclusive [falling, single point] |
| Cc1ccc(-c2c[n+](CC(=O)N3c4ccccc4Sc4ccccc43)c3n2CCC3)cc1 | inconclusive [falling, single point] |
| COC(=O)COc1ccc(NC(=O)C(c2ccccc2)c2ccccc2)cc1 | inconclusive [falling, single point] |
| O=C1c2cc([N+](=O)[O-])cc3cc([N+](=O)[O-])cc(c23)C(=O)N1c1ccccn1 | inactive |
| O=C(Cc1ccc(Br)cc1)Nc1ccc(S(=O)(=O)Nc2ncccn2)cc1 | active: 23.9 µM |
| CC(C)c1nc(N2CCN(C(=O)c3ccco3)CC2)c2c3c(sc2n1)CCCC3 | inconclusive [falling, single point] |
| O=C(Cc1ccc([N+](=O)[O-])cc1)Nc1ccc(Br)cn1 | inconclusive [falling, partial curve] |
| Nc1ccc(NC(=O)c2ccc(C(=O)Nc3ccc(N)cc3)cc2)cc1 | inconclusive [activator, single point] |
| O=C(COc1coc(CN2CCN(c3cccc(Cl)c3)CC2)cc1=O)NC1CCCC1 | inconclusive [activator, single point] |
| COc1ccc(NC(=O)COc2coc(CN3CCc4ccccc4C3)cc2=O)cc1 | inconclusive [activator, single point] |

| Structure (SMILES) | Potency |
| --- | --- |
| Cc1cc(-c2nc3c4c5c(sc4[nH]c(=O)n3n2)CCC5)c(C)o1 | inconclusive [falling, partial curve] |
| CSc1ncccc1C(=O)OCC(=O)c1[nH]c(C)c(C(C)=O)c1C | inconclusive [falling, single point] |
| O=C(/C=C/c1ccc2c(c1)OCO2)c1cccnc1 | inactive |
| COc1ccc2sc(SCCCS(=O)(=O)O)[n+](CCCS(=O)(=O)[O-])c2c1 | inconclusive [activator, full curve] |
| COC(=O)c1ccccc1NC(=O)CSc1nnc(Cc2ccc(Cl)cc2)o1 | inconclusive [falling, single point] |
| O=C(Cc1ccc(Cl)cc1)Nc1ccc(Br)cn1 | inconclusive [falling, single point] |
| COc1cccc(C(=O)NC(=O)Nc2cc(C)on2)c1 | inactive |
| COc1ccc2c(CC(=O)NCc3ccc4c(c3)OCO4)coc2c1 | inconclusive [falling, single point] |
| Cc1ccc(/C=c2\sc3nc(-c4ccccc4Br)nn3c2=O)o1 | inconclusive [falling, partial curve, poor fit] |
| Cc1ccc(S(=O)(=O)NCC(=O)NCC(=O)OCC(=O)N2CC(=O)Nc3ccccc32)cc1C | inactive |
| COC(=O)/C=C\C(=O)Nc1cccc([N+](=O)[O-])c1 | inconclusive [falling, single point] |
| O=C(N/N=C/c1ccc2c(c1)OCO2)c1ccc(Br)o1 | inconclusive [falling, single point] |
| COC1=C/C(=C/c2c(N)n3cc(C)sc3nc2=O)C=CC1=O | inconclusive [activator, single point] |
| Cc1cnc(CNC(=O)CC2C(=O)NCCN2Cc2ccccc2C(F)(F)F)cn1 (configuration not stated) | inactive |
| O=C(Cc1ccc(Cl)cc1)N/N=C/c1ccncc1 | inconclusive [falling, single point] |
| Cc1cc(C)nc(SCc2nnc(SCc3ccc([N+](=O)[O-])cc3)n2Cc2ccco2)n1 | inconclusive [falling, partial curve] |
| CCC(C)c1ccccc1N1CC(C(=O)Nc2ccc(C)c(S(=O)(=O)N3CCOCC3)c2)CC1=O (configuration not stated) | inactive |
| CCOC(=O)c1[nH]cnc1C(=O)O | inconclusive [falling, single point] |
| O=C(CSc1ccsc1[N+](=O)[O-])Nc1cc(F)ccc1F | inconclusive [falling, partial curve] |
| Cc1cccn2c(=O)c3cc(C#N)c(=NC(=O)c4ccco4)n(Cc4ccco4)c3nc12 | inactive |
| CN(Cc1ccccc1)C(=O)c1ccc(NC(=O)Cc2cccc([N+](=O)[O-])c2)cc1 | inconclusive [falling, partial curve] |
| CC(C)C(=O)Nc1ccc(C(=O)NCc2cccnc2)cc1 | inactive |
| O=C(CSC1=NS(=O)(=O)c2ccccc2N1)Nc1cccc(F)c1 | inconclusive [falling, partial curve] |
| C/C(=N\NC(=O)c1cc(O)cc(O)c1)c1ccc(NC(=O)Cc2ccccc2)cc1 | inconclusive [falling, partial curve] |

| Structure (SMILES) | Potency |
| --- | --- |
| COCCNS(=O)(=O)c1ccc2c(c1)C(=NO)c1cc(S(=O)(=O)NCCOC)ccc1-2 | inactive |
| O=C1/C(=C/c2ccc([N+](=O)[O-])cc2)C=C(c2ccccc2)N1c1ccc(O)cc1 | inactive |
| Cc1ccc(NC2=C(NC(=O)c3ccccc3)C(=O)c3ccccc3C2=O)cc1Cl | inconclusive [falling, partial curve] |
| CC(C)c1ccc(NC2CCCN(C(=O)c3ccsc3)C2)cc1 (configuration not stated) | inactive |
| CCOC(=O)C1=C(O)/C(=C/c2ccc(-c3ccccc3C(=O)O)o2)SC1=Nc1ccc(C)cc1 | inactive |
| Cc1cccc(N=C2SC(C)CN2C(=O)CN2C(=O)NC3(CCCC3)C2=O)c1 (configuration not stated) | inconclusive [activator, single point] |
| OC[C@H]1OC(O)[C@H](O)[C@@H](O)[C@H]1O (some centres not stated) | inactive |
| COc1ccc(N(C(=O)c2snc(C(N)=O)c2N)C(C(=O)NC2CCCCC2)c2ccc(C)o2)cc1 (configuration not stated) | inactive |
| COc1cc(-c2nnc(COC(=O)c3ccc(C)o3)o2)cc(OC)c1OC | inconclusive [falling, single point] |
| COC(=O)CSc1nnc(CNc2ccc(F)cc2)o1 | inconclusive [falling, partial curve] |
| Cc1ccc2sc(NNC(=O)c3cc(=O)c4ccccc4o3)nc2c1C | inactive |
| Nc1nn2cc(-c3ccccc3)nc2c2ccccc12 | inconclusive [activator, partial curve] |
| CC(=O)Nc1ccc(S(=O)(=O)N(Cc2ccco2)Cc2cc3ccccc3[nH]c2=O)cc1 | inactive |
| O=C(Cc1cccs1)Nc1ccc(-c2nnn(CC(=O)N3CCOCC3)n2)cc1 | inconclusive [falling, single point] |
| O=C(CN1CCN(c2ccccc2F)CC1)NC(=O)NC1CCCCC1 | inactive |
| O=C(Cc1ccc(F)cc1)N/N=C/c1ccc(-c2ccc(Cl)c(C(=O)O)c2)o1 | inconclusive [falling, partial curve] |
| COc1ccc(NS(=O)(=O)c2ccc(N3CCOCC3)c(NC(=O)c3ccco3)c2)cc1 | inactive |
| O=C(COC(=O)C1CC2C=CC1C2)NCc1ccco1 (configuration not stated) | inconclusive [falling, full curve] |
| O=C1COc2ccc(C(=O)COC(=O)c3ncc(Cl)c(Cl)c3Cl)cc2N1 | inconclusive [falling, single point] |
| O=C(COC(=O)CCC(=O)c1ccc(Cl)cc1)NCc1ccco1 | inconclusive [falling, single point] |
| O=C(O)C(O)c1ccco1 (configuration not stated) | active: 4.78 µM |
| Nc1nc(SCC(=O)Nc2ccc(Br)cc2F)n[nH]1 | inactive |
| N#Cc1c(-c2ccccc2)nc(SCC(=O)Nc2ccccc2)[nH]c1=O | inactive |
| Cc1cc(=O)[nH]c(NCc2ccc(Cl)cc2)n1 | inconclusive [falling, single point] |
